In PubChem BioAssay AID1963576 (National Center for Advancing Translational Sciences (NCATS), 2024):
About 60 (0.1%) of roughly 46,000 compounds were called active. Not shown: some 3% with an inconclusive outcome. Calls follow the shape of the dose curve; as a rule, active = well fitted inhibition curve with a large enough effect; inconclusive = small, poorly fitted or top-dose-only effect; inactive = no such curve, though single readings can be large or run the other way. The list shows a part of the results.

Assay: Primary qHTS assay for Inhibitors of ovarian cancer metastasis using an organotypic tumor microenvironment (TME) model. Also: nearly all actives have a fitted effect of over 65% in size.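 As to activity change, negative = inhibition: plate controls were DMSO wells for no effect and tomatine positive control wells for full effect.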
Conditions: SKOV3ip1-GFP adhesion/invasion on 3D omental model, fluorescence; series mostly up to 45.8 µM; activity change, negative = inhibition: at the top concentration
How it was run: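 A 3D layer of primary human omental fibroblasts, mesothelial cells, fibronectin and collagen I, grown 48 hr, received SKOV3ip1-GFP cells in serum-free medium plus compounds at 0.36-46 umol/L. After 2 hr RT and 16 hr 37 C, fixed adherent GFP cells were counted; normalized to DMSO and tomatine.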

outcome, inactive:
O=C(CCc1nnc2n(Cc3ccccc3Cl)c(=O)c3ccccc3n12)Nc1ccc(F)c(F)c1
CCCCNC(=O)Cn1c(=O)cc(C)c2c(C)nn(-c3ccc(CC)cc3)c21
CCOC(=O)N1CCc2c(sc3c2c(=O)n(CCc2ccccc2)c(=O)n3CC(=O)Nc2ccccc2C)C1
Cc1ccc(-c2nn(CCC(=O)Nc3ccc(OC(F)(F)F)cc3)c(=O)c3ccccc23)cc1
CCCC(=O)N1c2nc(-c3ccco3)nn2C2(CCCCC2)[C@@H]2CCCC[C@@H]21
CCCCCn1c(CCCNC(=O)c2ccccc2)nc2ccccc21
Cc1ccccc1NC(=O)CSc1nccn1C
Cc1nn(C)c2c1c(C(F)(F)F)cc(=O)n2CC(=O)Nc1ccc(F)cc1F
O=S(=O)(NCC(c1ccco1)S(=O)(=O)c1cccs1)c1ccccc1 (stereo unspecified)
Cc1ccc(OC(C)C(=O)N2CCN(CCc3ccccn3)CC2)cc1C (stereo unspecified)
Cc1cc(F)ccc1NC(=O)C1CCCN(C(=O)c2cnn(-c3ccccc3)c2-n2cccc2)C1 (stereo unspecified)
COc1cccc(CNC(=O)CCc2c(C)nn(-c3ccc(N4CCCC4)nn3)c2C)c1
O=C(Nc1ccc2oc(-c3cccc4c(Br)cccc34)nc2c1)c1cccc(Cl)c1
CCCN(c1ccccc1F)S(=O)(=O)c1cc(-c2cc(C)no2)ccc1C
CC(C)(C)C1CCc2c(sc(NC(=O)c3cc(-c4ccc(F)cc4)on3)c2C#N)C1 (stereo unspecified)
CSc1cccc(Nc2cc(C(=O)NC3CCCCC3)c3ccccc3n2)c1
Cc1cc(C)cc(N2C(=O)CSC23C(=O)N(CC(N)=O)c2ccccc23)c1 (stereo unspecified)
CCCN(CCC)c1cc(C)nc2nc(-c3ccc(C(C)(C)C)cc3)nn12
COCCN(Cc1ccc(C)c(Br)c1)S(=O)(=O)c1ccc2[nH]c(=O)ccc2c1
Cc1cccc(N2CCN(C(=O)c3cc4ccc5cccnc5c4[nH]3)CC2)c1C
CC(C)Cc1nn2c(=O)cc(COC(=O)c3cccc(NC(=O)c4ccccc4)c3)nc2s1
CCc1ccccc1NC(=O)N1CCN(Cc2nc3ccc(C)cc3o2)CC1
Cc1noc(C)c1S(=O)(=O)N(CC(=O)Nc1ccc(C(F)(F)F)cc1)c1ccc(C(C)C)cc1
Cc1ccc2nc(Nc3cccc(C(F)(F)F)c3)c3nnnn3c2c1

Activity change, negative = inhibition, inactive:
CCC1CN(C(=O)N2CCC(C(=O)NCCc3ccc(C)cc3)CC2)c2ccccc2O1 (stereo unspecified) -7.89%
Cc1ccc(-c2cn3c(n2)sc2cc(C(=O)NCc4cccs4)ccc23)cc1 -4.31%
COc1ccc(NC(=O)C2CCCN(S(=O)(=O)c3ccc4[nH]c(=O)ccc4c3)C2)cc1Cl (stereo unspecified) 4.6%
COC(=O)c1cc2sccc2n1Cc1c(C)cc(C)cc1C -2.39%
O=C(c1cccc(Cl)c1)N(Cc1cccc(F)c1)C1CCS(=O)(=O)C1 (stereo unspecified) 2.83%
NC(=O)c1c(NC(=O)CS(=O)(=O)c2ccc(Cl)cc2)sc2c1CCCC2 0.876%
CCCSc1nnc(NC(=O)c2cc(=O)c3ccccc3o2)s1 -23.6%
COc1ccc(S(=O)(=O)N(CCc2ccccc2)CC(=O)Nc2cc(Cl)ccc2C)cc1 -2.82%
COc1ccccc1C(=O)Nc1ccccc1OCc1cc(=O)n2cc(C)sc2n1 -28.9%
Cc1ccc(C)c(OCCCC(C)(C)C(=O)O)c1 -24.4%
CCOc1cccc(C(=O)N(Cc2ccc(C(C)C)cc2)C2CCS(=O)(=O)C2)c1 (stereo unspecified) -2.14%
Cc1ccc(NC(=O)C2CCN(C(=O)c3sc4nc[nH]c(=O)c4c3C)CC2)cc1F -1.59%
COc1cccc(NC(=O)Cn2c(=O)n(-c3ccc(C)cc3)c(=O)c3ccccc32)c1 1.41%
O=C(Nc1ncc(Cc2ccc(F)cc2)s1)c1ccc2c(c1)CC(c1ccccc1)OC2=O (stereo unspecified) 0.71%
CC(C)Oc1ccc(C(=O)NCCc2csc(-c3cccc(F)c3)n2)cc1 -2.3%
Cc1ccc(-c2noc(-c3ccccc3OCC(=O)Nc3ccccc3[N+](=O)[O-])n2)cc1 0.205%
Cc1ccccc1NC(=O)c1c(C)oc2ccc(O)c(CN(C)Cc3ccccc3)c12 -11.3%
CCN1C(=O)C(Cc2nc3ccccc3c(=O)n2-c2cccc(C)c2)c2ccccc21 (stereo unspecified) 0.182%
Cc1cccc(N(C)C(=O)Cn2cnc3nc4c(cc3c2=O)CCCC4)c1 -4.65%
Cc1nnc(N2CCC(C(=O)NC3CCC(C)CC3)CC2)c2nn(-c3ccc(Cl)cc3)c(C)c12 (stereo unspecified) 9.14%
COc1ccc(OC(=O)c2cn(-c3cccc(OC)c3)c(=O)c3ccccc23)cc1 -9.56%
CC(CCc1ccccc1)NC(=O)CSc1n[nH]c(-c2ccccc2Cl)n1 (stereo unspecified) 9.25%
Cc1cc(Cl)ccc1NC(=O)C1CCCN(c2nnc(C)c3c(C)n(-c4ccccc4)nc23)C1 (stereo unspecified) 1.95%
COc1cccc(N2CC(NC(=O)c3cccs3)CC2=O)c1 (stereo unspecified) 13%
Cc1cc(C)c(NC(=O)C(C)n2nc(C)c3sc4ccccc4c3c2=O)c(C)c1 (stereo unspecified) 18.3%
CCCc1nnc(NC(=O)CSc2nnc3c4ccccc4n(CC)c3n2)s1 0.549%
CCc1ccc(CNC(=O)c2ccc(Cn3c(=O)c4cccn4c4cccnc43)cc2)cc1 -9.23%
Cc1nc2ccccc2n1CCc1nc2c3ccccc3nc(SCc3ccccc3F)n2n1 -1.32%
Cc1cccc(OCC(=O)Nc2ccc3nc(SCc4ccccc4)sc3c2)c1 3.18%
CCOc1ccc(C(=O)N2CC(=O)Nc3ccc(F)cc3C2c2ccc(F)cc2)cc1 (stereo unspecified) -3.28%
COc1ccc(N(CC(=O)N2CCN(c3cccc(Cl)c3)CC2)S(=O)(=O)c2c(C)noc2C)cc1 32.3%
Cc1ccc(OCCCC(=O)Nc2sc3c(c2C(N)=O)CCC(C)C3)cc1 (stereo unspecified) 3.76%
CC(C)NC(=O)C1CCCN(S(=O)(=O)c2ccc3c(ccn3C)c2)C1 (stereo unspecified) 4.89%
CCc1cccc(C)c1NC(=O)c1cc(CN2CCCC2)on1 -12.3%
COCCn1c(C)cc(O)c(C(c2cccc(F)c2)N2CCN(c3ccccc3)CC2)c1=O (stereo unspecified) -3.45%
CCc1nnc2c(Nc3cc(OC)c(Cl)cc3OC)nc3ccccc3n12 4.32%
COc1ccc(-c2oc3ncn4nc(COc5ccc(Cl)cc5)nc4c3c2-c2ccc(OC)cc2)cc1 4.68%
Cc1ccc(OCC(=O)OCc2cc(=O)n3nc(C4CC4)sc3n2)cc1C 7.64%
Cc1cc(C)cc(-n2ccn3cnnc3c2=O)c1 23.4%
CCC(C(=O)NCCc1ccc(OC)c(OC)c1)n1nc(C)c2sc3ccccc3c2c1=O (stereo unspecified) 4.74%
CCCCCCSc1nc(N)c2c3c(sc2n1)CCCC3C (stereo unspecified) 8.56%
CCc1ccc2occ(CC(=O)Nc3c(C(=O)c4ccc(F)cc4)oc4ccccc34)c2c1 -13.5%
COc1ccc(C)cc1NC(=O)Cn1c(=O)oc2cc(S(=O)(=O)N3CCCCCC3)ccc21 -6.95%
Cn1cc(C=CC(=O)c2cccc(F)c2)cc1C=CC(=O)NO -0.557%
COc1cc2c(cc1OC)[C@@H]1Cc3ccc(OC)c(OC)c3CN1CC2 9.54%
CN(C)c1ccc(-c2nc3ccc(Cl)cn3c2Nc2ccc3c(c2)OCCO3)cc1 16.8%
Cn1nc(-c2ccccc2)c(-c2ccccc2)c(C(=O)Nc2ccccc2C(N)=O)c1=O -4.46%
CCC[C@@H](NC(=O)[C@@H]1[C@H]2CCC[C@@H]2CN1C(=O)[C@@H](NC(=O)[C@@H](NC(=O)c1cnccn1)C1CCCCC1)C(C)(C)C)C(=O)C(=O)NC1CC1 -8%
CC(=O)N1CCc2cc(Br)cc(S(=O)(=O)CCC(=O)N3CCN(c4cccc(C)c4C)CC3)c21 -5.85%
CCOC(=O)c1ccc(NC(=O)c2cc(=O)c3ccc(C)c(C)c3o2)cc1 -1.73%
CCOCCCNC(=O)Cn1ncc2c([nH]c3ccc(C)cc32)c1=O -7.56%
Cc1ccc(C)c(N2CCN(C3(c4ccccc4)C(=O)c4ccccc4C3=O)CC2)c1 -12.2%
Cc1cccc(Cn2cc3c(=O)n(CC(=O)Nc4cccc(C)c4C)nc-3c3cc(F)ccc32)c1 -9.63%
Cc1c(C(=O)Nc2cccc(C(F)(F)F)c2)sc2nc3n(c(=O)c12)CCC3 -7.34%
CCCN(CCC)CCNC(=O)c1cc2c(=O)oc3ccc(C)cc3c2s1 1.98%
COc1ccc(NC(=O)c2cc(C3CC3)nc3c2c(C)nn3-c2ccccc2)c(OC)c1 4.39%
Cc1ccc(-n2ncc3c(Nc4ccc(Oc5ccccc5)cc4)ncnc32)cc1 -8.88%
COCCn1c(C)cc(O)c(C(c2ccccc2)N2CCCCC2)c1=O (stereo unspecified) 72.1%
CCOc1ccc(/C=C/c2nc(C#N)c(NCc3ccc(OC)cc3)o2)cc1 3.31%
Clc1ccccc1CNCCCSc1nnnn1-c1ccccc1 -9.44%
CCOCCCNC(=O)Cn1ncc2c([nH]c3ccccc32)c1=O 5.31%
O=C(NCc1ccc2c(c1)CCN2C(=O)c1ccc(F)cc1)c1c(F)cccc1F 1.4%
O=C(CCCN1CCC(O)(c2ccc(Cl)cc2)CC1)c1ccc(F)cc1 17.1%
CCOC(=O)N1CCN(Cc2nc3cc(NC(=O)CC(C)C)ccc3n2C(C)C)CC1 -0.648%
COC(=O)c1ccc(NC(=O)C(=O)NCCc2csc3nc(-c4ccccc4F)nn23)cc1 -0.0121%
CCN(CC)S(=O)(=O)c1ccc2c(c1)N(CC(=O)Nc1cccc(C)c1C)C(=O)C1CCCN21 (stereo unspecified) 3.93%
CC1=C(C(=O)Nc2ccccc2)C(c2ccc(F)cc2)n2nc(SCc3cc(C)ccc3C)nc2N1 (stereo unspecified) 35.7%
Nc1nonc1-c1nc2ccccc2n1CC(=O)Nc1cccc(C(F)(F)F)c1 -20.8%
COc1ccc(C)cc1NC(=O)CSc1ncc2c(n1)-c1ccc(Cl)cc1N(Cc1ccccc1)S2(=O)=O -1.64%
Cc1ccc(NC(=O)CCN2C(=O)c3ccccc3Sc3ncccc32)cc1 9.83%
COc1cc(OC)c(NC(=O)C(CC(C)C)N2Cc3ccccc3C2=O)cc1Cl (stereo unspecified) -2.62%
CCOc1ccccc1NC(=O)CSc1cn(CC(=O)N2CCCCCC2)c2ccccc12 -9.55%
